Laboratory results: PMC6438966
These are yes or no findings as the source states them, for the method shown. In cells and extracts the contact can be indirect. Some entries that bind do so weakly or less than the wild type.

Protein sequences, listed by entry. Tags and fused reporters are not part of them. Lines headed by an entry give the natural chain unless they say otherwise; changes in a name come on top.
UniProt Q92466: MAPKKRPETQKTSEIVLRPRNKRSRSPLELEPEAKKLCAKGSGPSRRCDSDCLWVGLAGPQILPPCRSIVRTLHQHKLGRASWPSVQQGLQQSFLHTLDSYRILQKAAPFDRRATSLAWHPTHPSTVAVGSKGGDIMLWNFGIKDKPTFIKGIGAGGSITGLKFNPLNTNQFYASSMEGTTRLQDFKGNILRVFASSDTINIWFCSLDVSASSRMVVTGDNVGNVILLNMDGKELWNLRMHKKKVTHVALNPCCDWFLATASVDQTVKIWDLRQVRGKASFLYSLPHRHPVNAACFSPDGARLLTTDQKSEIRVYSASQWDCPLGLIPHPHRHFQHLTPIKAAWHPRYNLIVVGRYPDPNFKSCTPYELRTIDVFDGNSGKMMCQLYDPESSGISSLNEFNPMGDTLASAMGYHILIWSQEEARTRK
UniProt Q13619: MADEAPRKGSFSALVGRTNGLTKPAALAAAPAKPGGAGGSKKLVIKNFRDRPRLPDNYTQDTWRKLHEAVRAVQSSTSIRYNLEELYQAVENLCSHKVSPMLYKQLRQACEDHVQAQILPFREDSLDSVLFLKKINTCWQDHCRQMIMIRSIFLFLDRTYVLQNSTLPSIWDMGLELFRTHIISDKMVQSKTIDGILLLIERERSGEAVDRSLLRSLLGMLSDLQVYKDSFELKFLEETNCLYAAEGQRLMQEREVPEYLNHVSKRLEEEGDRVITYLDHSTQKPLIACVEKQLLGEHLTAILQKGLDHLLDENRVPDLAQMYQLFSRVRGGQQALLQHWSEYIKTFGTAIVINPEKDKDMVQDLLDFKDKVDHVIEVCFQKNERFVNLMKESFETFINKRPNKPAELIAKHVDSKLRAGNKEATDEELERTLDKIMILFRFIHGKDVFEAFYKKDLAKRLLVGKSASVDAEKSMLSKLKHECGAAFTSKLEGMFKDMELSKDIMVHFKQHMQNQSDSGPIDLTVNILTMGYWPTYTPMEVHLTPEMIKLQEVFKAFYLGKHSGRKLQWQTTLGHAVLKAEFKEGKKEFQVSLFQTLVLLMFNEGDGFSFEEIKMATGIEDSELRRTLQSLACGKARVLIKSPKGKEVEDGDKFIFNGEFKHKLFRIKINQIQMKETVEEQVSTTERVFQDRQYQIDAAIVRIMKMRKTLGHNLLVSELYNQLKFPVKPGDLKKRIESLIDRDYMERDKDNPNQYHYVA
UniProt Q13620: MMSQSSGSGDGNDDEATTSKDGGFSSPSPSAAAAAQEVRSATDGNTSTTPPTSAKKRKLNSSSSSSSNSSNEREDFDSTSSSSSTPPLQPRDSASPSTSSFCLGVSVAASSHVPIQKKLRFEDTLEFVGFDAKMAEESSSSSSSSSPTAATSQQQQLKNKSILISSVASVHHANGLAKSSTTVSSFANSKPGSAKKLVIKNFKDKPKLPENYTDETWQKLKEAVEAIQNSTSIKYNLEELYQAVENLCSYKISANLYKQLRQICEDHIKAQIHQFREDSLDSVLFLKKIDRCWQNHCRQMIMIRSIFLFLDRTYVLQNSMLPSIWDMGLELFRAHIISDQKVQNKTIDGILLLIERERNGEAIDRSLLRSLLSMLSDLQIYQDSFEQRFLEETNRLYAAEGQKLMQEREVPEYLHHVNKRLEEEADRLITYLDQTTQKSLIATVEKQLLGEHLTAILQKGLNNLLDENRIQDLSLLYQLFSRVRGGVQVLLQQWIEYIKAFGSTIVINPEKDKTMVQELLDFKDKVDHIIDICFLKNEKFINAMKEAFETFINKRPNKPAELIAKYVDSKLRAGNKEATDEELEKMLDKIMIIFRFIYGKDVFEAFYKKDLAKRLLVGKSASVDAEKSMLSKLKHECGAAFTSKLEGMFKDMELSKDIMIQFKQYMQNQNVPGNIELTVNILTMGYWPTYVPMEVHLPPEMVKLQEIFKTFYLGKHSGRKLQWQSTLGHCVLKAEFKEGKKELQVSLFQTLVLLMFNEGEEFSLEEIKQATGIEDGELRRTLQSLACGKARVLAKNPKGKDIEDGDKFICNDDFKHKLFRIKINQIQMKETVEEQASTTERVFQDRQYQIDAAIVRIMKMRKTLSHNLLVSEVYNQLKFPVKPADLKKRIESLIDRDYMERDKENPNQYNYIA
UniProt Q16531: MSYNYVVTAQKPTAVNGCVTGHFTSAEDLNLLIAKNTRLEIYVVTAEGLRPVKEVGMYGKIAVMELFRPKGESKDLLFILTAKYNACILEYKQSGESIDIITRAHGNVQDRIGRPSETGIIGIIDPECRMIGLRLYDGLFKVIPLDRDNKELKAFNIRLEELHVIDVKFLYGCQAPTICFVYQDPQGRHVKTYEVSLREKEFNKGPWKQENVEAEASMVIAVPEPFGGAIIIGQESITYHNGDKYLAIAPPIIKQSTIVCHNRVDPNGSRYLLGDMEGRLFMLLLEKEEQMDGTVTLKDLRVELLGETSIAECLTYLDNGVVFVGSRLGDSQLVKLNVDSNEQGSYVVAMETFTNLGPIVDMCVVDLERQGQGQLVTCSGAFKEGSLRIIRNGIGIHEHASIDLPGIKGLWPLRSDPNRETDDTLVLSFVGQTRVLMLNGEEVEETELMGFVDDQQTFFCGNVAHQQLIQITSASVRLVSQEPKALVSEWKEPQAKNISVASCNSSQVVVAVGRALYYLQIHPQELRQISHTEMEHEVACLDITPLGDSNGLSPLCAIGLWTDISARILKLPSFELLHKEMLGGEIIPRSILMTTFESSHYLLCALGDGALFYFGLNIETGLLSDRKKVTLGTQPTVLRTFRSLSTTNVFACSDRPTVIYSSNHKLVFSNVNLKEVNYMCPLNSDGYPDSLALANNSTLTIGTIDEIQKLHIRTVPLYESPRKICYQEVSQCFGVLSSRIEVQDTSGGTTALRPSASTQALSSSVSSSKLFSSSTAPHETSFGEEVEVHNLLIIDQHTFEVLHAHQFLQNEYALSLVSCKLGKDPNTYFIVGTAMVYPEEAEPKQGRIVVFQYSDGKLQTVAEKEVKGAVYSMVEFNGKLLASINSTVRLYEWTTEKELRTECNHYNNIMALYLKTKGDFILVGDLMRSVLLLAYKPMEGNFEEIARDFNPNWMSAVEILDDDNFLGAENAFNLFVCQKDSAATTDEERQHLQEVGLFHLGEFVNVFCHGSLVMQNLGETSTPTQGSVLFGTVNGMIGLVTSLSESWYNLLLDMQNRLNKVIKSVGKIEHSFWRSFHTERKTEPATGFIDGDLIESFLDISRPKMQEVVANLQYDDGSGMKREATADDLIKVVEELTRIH
UniProt O00482: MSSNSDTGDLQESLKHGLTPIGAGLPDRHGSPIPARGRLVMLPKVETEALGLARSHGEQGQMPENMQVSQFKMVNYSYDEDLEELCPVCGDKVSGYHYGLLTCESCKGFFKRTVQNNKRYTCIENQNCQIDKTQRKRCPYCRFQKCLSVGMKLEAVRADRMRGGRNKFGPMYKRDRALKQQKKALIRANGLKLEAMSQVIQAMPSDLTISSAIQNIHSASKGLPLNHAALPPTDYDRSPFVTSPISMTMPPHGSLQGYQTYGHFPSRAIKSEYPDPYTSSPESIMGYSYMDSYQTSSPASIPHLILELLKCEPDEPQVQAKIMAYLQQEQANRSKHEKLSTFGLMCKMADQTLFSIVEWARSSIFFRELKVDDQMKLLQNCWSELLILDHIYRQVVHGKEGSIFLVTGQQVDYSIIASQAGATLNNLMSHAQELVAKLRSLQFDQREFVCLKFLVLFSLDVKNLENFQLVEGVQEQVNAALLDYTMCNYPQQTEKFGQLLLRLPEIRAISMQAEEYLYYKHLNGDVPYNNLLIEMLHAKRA
UniProt P45448: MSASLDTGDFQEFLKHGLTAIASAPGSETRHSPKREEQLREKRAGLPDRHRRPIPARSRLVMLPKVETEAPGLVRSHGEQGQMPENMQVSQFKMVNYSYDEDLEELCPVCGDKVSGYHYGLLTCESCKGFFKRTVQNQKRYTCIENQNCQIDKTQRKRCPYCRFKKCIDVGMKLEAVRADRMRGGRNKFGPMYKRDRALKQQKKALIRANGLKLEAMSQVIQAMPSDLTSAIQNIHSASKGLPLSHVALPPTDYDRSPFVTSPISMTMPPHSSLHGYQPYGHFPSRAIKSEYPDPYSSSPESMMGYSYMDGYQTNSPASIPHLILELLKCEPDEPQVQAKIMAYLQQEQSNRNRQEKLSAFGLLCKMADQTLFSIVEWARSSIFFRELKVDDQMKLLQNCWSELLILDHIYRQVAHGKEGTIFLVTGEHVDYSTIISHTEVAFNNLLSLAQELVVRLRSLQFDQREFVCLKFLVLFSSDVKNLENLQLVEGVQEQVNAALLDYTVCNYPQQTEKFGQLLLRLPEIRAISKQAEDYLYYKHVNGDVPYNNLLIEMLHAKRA

biological target: endogenous DDB2 of HepG2 cells (human (endogenous in HepG2)) (UniProt Q92466); assay: co-IP; HepG2 cell lysates immunoprecipitated with anti-DDB2 antibody or control IgG, immunoblot; endogenous proteins

Row | binding | Substance
1 | binds | endogenous CUL4A of HepG2 cells (from UniProt Q13619 1-759) (other; other documents disagree on this pair)
2 | binds | endogenous CUL4B of HepG2 cells (from UniProt Q13620 1-913)
3 | binds | endogenous DDB1 of HepG2 cells (from UniProt Q16531 1-1140)
4 | binds | endogenous LRH-1 of HepG2 cells (from UniProt O00482 1-541)

biological target: Myc-DDB2 (DNA damage-binding protein 2) (UniProt Q92466); assay: co-IP; HEK293T cells transfected with EGFP-hLRH-1 and/or Myc-DDB2, MG-132 (10 uM) for 6 h; lysates immunoprecipitated with anti-Myc antibody, immunoblot

Row | Substance | binding
5 | EGFP-hLRH-1 (human liver receptor homologue-1) (from UniProt O00482 1-541) | binds
6 | endogenous DDB1 (DNA damage binding-protein 1) of HEK293T cells (from UniProt Q16531 1-1140) | binds

biological target: GST-DDB2 (UniProt Q92466); assay: pull-down; bead-bound GST or GST-DDB2 (glutathione-sepharose, from E. coli) incubated overnight at 4 °C with lysates of transfected HEK293T cells; washed with PBS/Triton X-100; immunoblot with anti-LRH-1-N or anti-GFP; only the target purified

Row | binding | Substance
7 | binds | EGFP-LRH-1(1-169) (from UniProt P45448 1-169) (domain or fragment)
8 | binds | EGFP-LRH-1(117-168) (from UniProt P45448 117-168) (domain or fragment)
9 | no binding | EGFP-LRH-1(226-520) (from UniProt P45448 226-520) (domain or fragment)
10 | binds | EGFP-hLRH-1 (human liver receptor homologue-1) (from UniProt O00482 1-541)

Continued, substance first:

Row | Substance | binding
11 | EGFP-LRH-1(1-116) (from UniProt P45448 1-116) (domain or fragment) | no binding
12 | EGFP-LRH-1(1-191) (from UniProt P45448 1-191) (domain or fragment) | binds
13 | EGFP-LRH-1(193-560) (from UniProt P45448 193-560) (domain or fragment) | no binding
14 | EGFP-mLRH-1 (mouse liver receptor homologue-1) (from UniProt P45448 1-560) | binds
